Measurements taken from the BET-seq Pho4 binding data (Le et al. 2018).
This is one part of the list. These are noisy estimates, calculated here from bound and input reads.

The sequences below were run against T1, Pho4 (S. cerevisiae) (UniProt P07270) (assay: relative binding free energy (BET-seq); higher = weaker binding). Conditions: reference: library average.
T1 sequence: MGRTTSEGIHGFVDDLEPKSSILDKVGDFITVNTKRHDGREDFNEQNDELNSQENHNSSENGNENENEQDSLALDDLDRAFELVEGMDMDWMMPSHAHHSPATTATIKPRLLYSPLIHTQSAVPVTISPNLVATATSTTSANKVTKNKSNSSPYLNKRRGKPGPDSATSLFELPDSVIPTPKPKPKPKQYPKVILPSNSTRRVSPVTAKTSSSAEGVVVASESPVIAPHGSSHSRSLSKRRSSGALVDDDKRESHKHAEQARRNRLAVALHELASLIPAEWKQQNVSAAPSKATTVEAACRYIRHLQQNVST

Sequence	relative binding free energy [kJ/mol]
TGTCTCACGTGGTGCA	0.669
GTTGTCACGTGAGACG	0.795
GTTCTCACGTGGTGAT	0.962
ACACTCACGTGGTTGG	0.962
GTGGCCACGTGGGCTT	-0.711
ATCGGCACGTGAGAAT	1.59
TTTTTCACGTGTAACA	1.42
TGCATCACGTGTATTG	0.711
TTTTTCACGTGGAGCG	1.17
GGCAGCACGTGGGGCG	-1.26
TGTCGCACGTGAGGGT	0.377
AATGTCACGTGTCGTA	0.711
TCGTGCACGTGTGAGA	0.0418
GGTGGCACGTGTAAGA	0.251
AAGCACACGTGGGTGT	-0.293
TTAGGCACGTGATAGA	-0.544
GTTGGCACGTGGTGAG	-0.418
TGCTTCACGTGGGCTA	0.753
GAGTACACGTGGGGAT	0.0418
TGTAGCACGTGAATAA	0.46
AGTATCACGTGTGCAT	0.669
CTGTTCACGTGTTTGG	1.05
CGGGACACGTGGAGGG	0.0418
ATTGACACGTGGGTAA	-0.293
ACGTACACGTGTTAGT	0.209

Sequence	relative binding free energy [kJ/mol]
TCCTGCACGTGTGTGG	-0.0418
GTATGCACGTGAGTAC	1.13
GTGCGCACGTGGTACG	-0.0837
CGAGGCACGTGATGCT	0.0418
ATCTACACGTGTATGG	0.377
TTTATCACGTGGGAAA	0.669
GCGATCACGTGGTTTT	0.46
AGCAACACGTGTAGTG	0.46
GAAGGCACGTGGGGAG	-0.544
TTCGGCACGTGAATAT	0.209
TAATGCACGTGTTAAG	-0.293
TGCGTCACGTGTGTAG	0.293
TTGGGCACGTGACGCT	-0.418
TCGGTCACGTGAATTG	1.21
ACGGGCACGTGGTGAT	-0.92
GATTGCACGTGTGCGT	0.753
AGCAACACGTGGGGGT	-0.795
CGGTTCACGTGGAAAG	1.72
GCTTGCACGTGTTTTG	-0.335
GTTTTCACGTGAATTC	2.47
ATGTGCACGTGAAGGG	0.92
ATTTACACGTGTGTTT	0.209
TCAGGCACGTGGGTCG	-1.3
GGGTACACGTGAGGTG	1.42
TGTCTCACGTGCTAGT	1.05

Sequence	relative binding free energy [kJ/mol]
AGTATCACGTGTATAG	0.837
CGTCGCACGTGTTGGT	-0.544
ATATACACGTGTAGTG	-0.167
CAAGGCACGTGTTGGT	-0.92
TGTGACACGTGATCTA	0.46
TGGCTCACGTGGATTT	0.837
TATGGCACGTGCGGTG	-1.26
TGAAGCACGTGTGTAT	-0.586
AGATACACGTGCGTGT	-0.293
GTAATCACGTGGTTAT	0.251
GTGTTCACGTGTGGTT	1.51
TGTCCCACGTGAGGGT	0.46
TGAGTCACGTGATTTG	0.962
TAGGCCACGTGAGATG	0.628
CAGTTCACGTGCGTGG	0.837
GTTTTCACGTGGGAGC	0.669
ATTCTCACGTGATTTA	1.26
AGGTACACGTGTAGCG	0.335
GTGGTCACGTGGTAGT	0.795
GGATCCACGTGTGAGG	0.92
TCTAACACGTGGGGGA	-0.628
TGAGACACGTGGTGTA	-0.837
GTCAGCACGTGTGGAT	0.544
TGGGGCACGTGGGCTC	-1
CGGGACACGTGATGGG	0.418

Sequence	relative binding free energy [kJ/mol]
AGGGGCACGTGTTGTC	-0.418
GTCAACACGTGGTATG	0.0837
TGGTGCACGTGAGTAC	1.05
TCGGGCACGTGTGGAC	0.418
TGTAACACGTGTCGAG	0.502
GTAAACACGTGGTAGG	-0.586
GTGGGCACGTGAGCAG	0.753
ATAGTCACGTGGTGAC	0.418
TATCACACGTGAGTTT	1.38
CTGTCCACGTGGGTTG	-0.586
GGGCACACGTGTGTGT	0.502
TAGCGCACGTGTGTCG	-0.628
GAGGGCACGTGTGGTA	0.167
TGGAGCACGTGTTTCT	-0.502
TGTGGCACGTGGCCAG	-0.879
CGATGCACGTGTGCTG	-0.126
AAGGGCACGTGGAGTA	-0.669
TTGGGCACGTGAACTT	0.335
TGTGCCACGTGCGTCG	-0.502
ATCTGCACGTGAGGTT	0.92
GACGGCACGTGAGATG	1.17
TTAGGCACGTGAGGGC	0.711
TTGAGCACGTGTGCAT	-0.669
AGAGTCACGTGGAGTT	0.628
GATGACACGTGGGCGG	-0.335

Sequence	relative binding free energy [kJ/mol]
AGGCTCACGTGTGTTA	0.795
TGCGGCACGTGGGTTA	-0.586
AGTCTCACGTGGTGAT	0.711
TGTAGCACGTGTTGAG	-0.418
TTGACCACGTGTATGG	-0.502
GGTTACACGTGAGGAA	1.72
TGGTACACGTGGGCGC	-0.335
TAAATCACGTGGATAG	1.09
GGGGCCACGTGGGAGC	-0.251
TTGGTCACGTGTTATC	0.669
GATTTCACGTGTCTGG	1.26
TGATACACGTGTTGCT	-0.544
TTCTTCACGTGGTAGG	0.628
TTAATCACGTGTGGCT	0.209
TAAATCACGTGTTATT	0.628
CTTGTCACGTGCGTGG	-0.586
TTTGGCACGTGTGTTG	0
GAGTACACGTGGGGTT	-0.377
ATTATCACGTGGCGGT	0.0837
AATGTCACGTGTCGGG	0.962
TTCGTCACGTGTGATT	0.586
GTTGGCACGTGGTTAG	-0.0837
AATATCACGTGCGGGG	1.17
GAGGGCACGTGGCTGT	-0.418
GGTTGCACGTGAGGCA	0.544

Sequence	relative binding free energy [kJ/mol]
TTGTGCACGTGAGCTA	0.795
GCGGGCACGTGGTTGC	-0.586
GTGCGCACGTGTTCGT	-0.251
AGTTACACGTGTTTGG	0.46
AAGGACACGTGCTTGT	0
CTCTGCACGTGTATGG	0.335
TGTGGCACGTGGGACA	-0.753
GTTGGCACGTGGTAAG	-0.418
TTGGGCACGTGGTAGG	-0.293
CATGGCACGTGTAGAG	0.209
GTCGGCACGTGGGTGA	-0.753
AAATGCACGTGTTTAA	0.209
TGGCGCACGTGGGGTA	-0.586
TATGCCACGTGGTGTA	-0.669
ATCGTCACGTGAGTTA	1.09
CTGGGCACGTGGGAGG	-0.711
TTCGTCACGTGGGTGA	0.418
CGTATCACGTGTTCGT	0.418
CGTTTCACGTGTATGG	1.3
GTCTTCACGTGTGGGA	1.13
GGTCTCACGTGTTAGG	1.34
